PubChem BioAssay AID1259400 (National Center for Advancing Translational Sciences (NCATS), 2018)
Among all 350,000 compounds or so, about 2,100 (0.6%) were called active. Inconclusive means that the source gave no clear call. Such entries were picked first, then a sample of the others.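 How the source made its calls: active means activity change of -60% or lower, but not beyond a set lower limit; inconclusive means change between -60% and -40%, or beyond the set limit; inactive means change above -40%.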

Target: Relaxin receptor 1 (Homo sapiens) (UniProt Q9HBX9)
Experiment: qHTS Assay for Antagonists of the Relaxin Receptor RXFP1
Conditions: HEK293-RXFP1, relaxin-stimulated cAMP HTRF, 30 min; at 57.5 µM; stronger effect = lower value
On the % scale 0 is the no-effect control and ±100 the full control effect.

Chain of UniProt Q9HBX9 (Q9HBX9 whole entry, looked up): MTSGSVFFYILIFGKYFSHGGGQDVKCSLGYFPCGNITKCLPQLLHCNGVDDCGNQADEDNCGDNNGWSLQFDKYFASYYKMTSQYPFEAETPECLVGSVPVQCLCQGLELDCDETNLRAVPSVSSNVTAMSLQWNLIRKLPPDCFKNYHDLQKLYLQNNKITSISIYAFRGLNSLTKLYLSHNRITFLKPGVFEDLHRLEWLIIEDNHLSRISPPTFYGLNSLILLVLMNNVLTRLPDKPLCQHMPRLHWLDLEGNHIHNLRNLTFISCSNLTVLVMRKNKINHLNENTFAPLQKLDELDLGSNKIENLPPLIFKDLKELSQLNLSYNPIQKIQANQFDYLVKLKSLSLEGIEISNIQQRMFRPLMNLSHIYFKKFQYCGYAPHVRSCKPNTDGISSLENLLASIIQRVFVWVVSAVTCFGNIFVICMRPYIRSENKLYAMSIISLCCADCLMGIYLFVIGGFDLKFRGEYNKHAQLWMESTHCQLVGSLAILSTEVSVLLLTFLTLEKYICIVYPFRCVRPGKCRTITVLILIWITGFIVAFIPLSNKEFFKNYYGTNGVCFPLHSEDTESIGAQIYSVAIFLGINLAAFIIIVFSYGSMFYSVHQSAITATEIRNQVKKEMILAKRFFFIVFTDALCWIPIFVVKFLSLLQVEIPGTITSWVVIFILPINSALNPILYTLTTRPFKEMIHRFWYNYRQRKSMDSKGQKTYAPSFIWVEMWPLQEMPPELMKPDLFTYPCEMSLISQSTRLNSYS

SMILES	activity change, negative = inhibition
CCn1c(COc2ccccc2C)nc2ccccc21	inactive: 2.53%
Oc1ccccc1CN(Cc1ccco1)CC(O)COCc1ccc(Cl)cc1 (configuration not stated)	inconclusive: -43.8%
Cc1c(C(=O)N2CCC(n3nccc3NC(=O)C3CC3)CC2)[nH]c2ccc(Cl)cc12	inconclusive: -54.1%
CCOc1ccccc1CNC(=O)C1Cc2cc(S(=O)(=O)N3CCCCC3)ccc2N1C(C)=O (configuration not stated)	inconclusive: -40.7%
FC(F)(F)c1cccc(Nc2c3c(nc4ccc(Cl)cc24)CCC3)c1	inconclusive: -41.9%
CCCCCN1C(C(=O)c2ccccc2)=C(OC(=O)CC)c2ccccc2S1(=O)=O	inconclusive: -51.5%
Cc1nc(-c2ccc(Cl)cc2)sc1CCNC(=O)C(=O)Nc1ccc2c(c1)OCO2	inactive: -9.91%
CCOC(=O)c1c(C)n(-c2ccc(C)cc2)c2ccc(OCC(O)CNCCCO)cc12 (configuration not stated)	inconclusive: -40.2%
O=[N+]([O-])/C=C/c1cn(Cc2ccccc2)c2ccccc12	inconclusive: -56.6%
O=C(O/N=C\c1ccc(N2CCCCC2)c([N+](=O)[O-])c1)c1cccc(C(F)(F)F)c1	inactive: -9.88%
Nc1nc(N(Cc2ccccc2)Cc2ccccc2)nc(C(F)(F)F)n1	inconclusive: -47.6%
Cc1cccc(-c2nc(SCc3cc(=O)c4c(C)cc(C)cc4[nH]3)n[nH]2)c1	active: -69.9%
COc1ccc(/C=C2/C(=O)N(c3nc4ccccc4s3)N=C2CSc2ccc(Cl)cc2)cc1	inconclusive: -49%
Cc1cc(C(=O)N2CCCC(C(=O)c3ccc(Oc4ccccc4)cc3)C2)n[nH]1 (configuration not stated)	active: -85%
CCOC(=O)C(CC)(CCC(=O)O)c1csc(Nc2ccc(C)cc2)n1 (configuration not stated)	inconclusive: -54.1%
C/C(CC(=O)N1CCN(C=O)CC1)=N\NC(=O)c1ccc(Cl)cc1	inconclusive: -47.3%
CC(NC(=O)c1cccc(S(=O)(=O)N2CCN(Cc3ccccc3)CC2)c1)c1ccc(Br)cc1 (configuration not stated)	inactive: -5.29%
Cc1ccc(F)cc1NC(=O)c1ccc(Cn2nc(N3CCN(c4ccccc4)CC3)ccc2=O)o1	inconclusive: -43.8%
COc1ccccc1S(=O)(=O)Cc1ccc(C(=O)N2CCN(c3cccc(Cl)c3)CC2)o1	inconclusive: -43.4%
OCC1(Cc2ccccc2)CCN(Cc2cnc(-c3ccc(Cl)cc3)nc2)CC1	inconclusive: -46.4%
CN1CCC[C@@H]1CCO[C@](C)(c1ccccc1)c1ccc(Cl)cc1	inconclusive: -45.7%
CC(C)Sc1cc(N2CCCC2)nc(-c2ccc(F)cc2)n1	inconclusive: -48%

SMILES	activity change, negative = inhibition
CC(C)CNS(=O)(=O)c1ccc(CCC(=O)N2CCN(c3ccccc3)CC2)cc1	inconclusive: -59%
COc1ccc(NC(=O)CN(C)C(=O)CC2CCCC2)cc1	active: -74.4%
Cc1ccc(CNC(=O)c2cnc(N3CCCCC3)c3ccccc23)cc1	inconclusive: -48.4%
CCN1N=C(c2ccccc2)Cn2c1nc1ccccc12	inactive: 3.85%
COCC(=O)N(Cc1cc2cc(OC)ccc2[nH]c1=O)c1ccc(C)cc1	inactive: -1.17%
CC1(C)Cc2ccccc2C(/C(=N\Nc2cccc(Cl)c2)C(N)=O)=N1	inconclusive: -43%
O=S1(=O)C=C(Sc2nc3ccccc3s2)c2ccccc21	inconclusive: -50.9%
Cc1nc(SCC(=O)N2CCN(C(=O)c3cccs3)CC2)c2c(C)c(C)sc2n1	active: -63.7%
CC1(C)NC(C)(C)/C(=C\c2cccs2)C(=O)C1=O	inconclusive: -41.2%
COC(=O)c1cccc(Nc2c(-c3ccc(OC)cc3)nc3nc[nH]n23)c1	inactive: -23.5%
CCOC(=O)C1CCN(C(=O)CN2C(=O)CSc3ccc(S(=O)(=O)N4CCOCC4)cc32)CC1	inactive: 10.5%
COc1ccc(S(=O)(=O)NC(C)CCc2ccccc2)cc1 (configuration not stated)	inconclusive: -52.2%
CCOc1ccc(-n2c(=O)c3sccc3n(CC(=O)NCC3CCCO3)c2=O)cc1 (configuration not stated)	inactive: -17.8%
Cc1ccc(Nc2c(-c3ccsc3)nc3cccc(C)n23)cc1	inconclusive: -50%
CS(=O)(=O)c1oc(-c2ccc(F)cc2)nc1S(=O)(=O)c1ccc(Cl)cc1	inconclusive: -50.5%
OC(CNCCc1ccc(Cl)cc1Cl)COc1ccccc1 (configuration not stated)	inconclusive: -47.5%
c1ccc(CCNCCCOc2cccc3ccccc23)cc1	active: -94.6%
CCOC(=O)N1CCN(c2cc3[nH]c(=S)[nH]c3cc2F)CC1	inconclusive: -58.2%
CC1CCCCN1CCCNC(=O)c1[nH]c2ccccc2c1Sc1ccc(Cl)cc1 (configuration not stated)	inconclusive: -42.8%
CN(C)c1cccc(C(=O)OCc2cc(=O)oc3cc(O)ccc23)c1	inconclusive: -48.7%
O=C(C[n+]1ccccc1)N/N=C/c1cc(Br)cc(Br)c1O	inconclusive: -42.8%
CC(C)(C)Cc1nc2ccccc2n1CCc1ccccc1	inconclusive: -44.8%

SMILES	activity change, negative = inhibition
Fc1ccccc1COc1ccc(Br)cc1CNCc1ccncc1	inconclusive: -50.2%
O=C(NCC1CCCO1)c1ccc2c(c1)N(Cc1ccccc1)CCS2 (configuration not stated)	inconclusive: -55.8%
CN1CCN(NC(=O)c2cccc(C(F)(F)F)c2)CC1	inactive: -9.19%
COCCNC(=S)N/N=C(\C)CCc1ccc2c(c1)OCO2	inactive: -5.02%
Cc1cccc(C(=O)N2CCc3cc(CNC(=O)c4ccco4)ccc32)c1	inconclusive: -49.1%
CC(C)(C)CC(C)(C)NCC(O)COc1c(F)cc(Br)cc1F (configuration not stated)	inconclusive: -43.3%
C/C(=N/NC(=O)c1cccc(N2CCCC2=O)c1)c1ccncc1	inactive: 6.99%
O=C(Nc1cccc(Br)c1)c1cc(S(=O)(=O)N2CCCCC2)c[nH]1	inconclusive: -41.7%
CC/C(=C(\c1ccccc1)c1ccc(OCCN(C)C)cc1)c1ccccc1	inconclusive: -41.5%
CCOC(=O)c1c(C)[nH]c(=S)c(C#N)c1-c1ccccc1	active: -118%
Cc1ccnc(NC(c2cccc(O)c2)c2ccc3ccc(C)nc3c2O)c1 (configuration not stated)	inconclusive: -41.1%
O=C1Nc2ccccc2C(=O)C1(Cl)Cc1ccccc1 (configuration not stated)	inactive: -14.7%
Cc1ccc(-n2nc(CO)c(C(=O)NCc3cccnc3)n2)cc1C	inconclusive: -40.7%
CN(C)CCCN(C(=O)c1ccc2ccccc2c1)c1nc2cc3c(cc2s1)OCO3	active: -60.9%
COc1cc(OC)c(OC)cc1CNC(=O)c1cccc(S(=O)(=O)N2CCc3ccccc3C2)c1	inactive: -7.68%
Cc1ccc(C)c(CN2CCCN(Cc3ccccc3C)S2(=O)=O)c1	inconclusive: -50.1%
CCCCOc1ccc(CSC(=N)N)cc1Cl	inconclusive: -56.1%
Cc1ccc(N2C(=O)C(Cl)=C(N3CCCCCC3)C2=O)c(C)c1	inconclusive: -41.6%
COc1cc2c(cc1OC)CN(CCC(=O)c1ccc(Br)cc1)CC2	inconclusive: -52%
O=C(CSc1nc2ccccc2nc1Cc1ccc(Cl)cc1)N1CCCCC1	inconclusive: -44.7%
CC(C)(C)c1csc(NC(=O)c2ccc(Cl)s2)n1	active: -101%
O=C(c1ccc2c(c1)N(Cc1ccccc1Cl)C(=O)c1ccccc1S2)N1CCCC1	active: -68.4%

SMILES	activity change, negative = inhibition
CCc1ccccc1-n1c(SCC(=O)Nc2ccc(C)cc2)nc2n[nH]c(C)c2c1=N	active: -86.9%
CCC(C)n1c(SCc2ccc(F)cc2Cl)nc2ccsc2c1=O (configuration not stated)	inactive: -28.8%
Cc1ccnc(NC(=O)C2CCN(S(=O)(=O)c3ccc(Cl)c(C(F)(F)F)c3)CC2)c1	inactive: -34.8%
CCN(CC)C(=O)Cn1cc(SCC(=O)Nc2cc(OC)ccc2OC)c2ccccc21	inactive: -8.98%
COc1ccc2[nH]c3c(=O)n(Cc4ccc(C(=O)NCC5CCCO5)cc4)c(=S)[nH]c3c2c1 (configuration not stated)	active: -89%
COc1ccc(CCN2CC(C(=O)Nc3ccccc3F)CC2=O)cc1OC (configuration not stated)	inconclusive: -41.4%
CSc1ccc(/C=C/c2ccc3cccc(O)c3n2)cc1	inconclusive: -43.9%
O=C(NCC1CCN(Cc2cccc(F)c2)CC1)c1cc2ccc3cccnc3c2[nH]1	inconclusive: -40.8%
COc1ccccc1/C=C\C(=O)NCC(=O)N/N=C/c1cccc(OC)c1O	inconclusive: -49.7%
Cc1cccc(NC(=O)c2cc([N+](=O)[O-])ccc2N2CCCCC2)n1	inactive: -15.8%
CC(C)(C)c1ccc(C(=O)NCCCN2CCN(CCCNC(=O)c3ccc(C(C)(C)C)cc3)CC2)cc1	inconclusive: -49.2%
COc1ccc(-c2[nH]c(-c3ccc(O)cc3)nc2-c2ccccc2)cc1	inconclusive: -51.2%
CCOC(=O)c1c(-c2cccc([N+](=O)[O-])c2)csc1NC(=O)C1CCCCC1	inactive: -5.54%
CCCCC(=O)Nc1nnc(S(=O)(=O)N(C)Cc2ccc(Cl)cc2)s1	inactive: -12.3%
COc1ccccc1OCC(=O)N(Cc1ccco1)Cc1ccccc1F	active: -61.8%
COc1ccc(CNC(=O)Nc2ccc3c(c2)N(C)C(=O)c2ccccc2S3)cc1	inconclusive: -42.7%
O=C(Nc1ccc(C(F)(F)F)cc1)C1(c2ccccc2)CC1	active: -63.2%
O=C(c1ccccc1)C(CCC(CN1CCOCC1)C(=O)c1ccccc1)CN1CCOCC1 (configuration not stated)	active: -67.9%
COc1ccc(N2CCN(c3ncnc4c3[nH]c3ccccc34)CC2)cc1	inconclusive: -44.4%
c1ccc(SCCN2CCc3ccccc3C2)cc1	inconclusive: -45.1%
COc1ccc(NS(=O)(=O)c2ccc(NC(=S)NC(=O)/C=C/c3ccccc3)cc2)nn1	inactive: -13.5%
